# Reference: PubChem BioAssay AID1508624 (National Center for Advancing Translational Sciences (NCATS), 2021)
# Out of some 48,000 compounds screened, about 120 (0.25%) were called active. About 4% were inconclusive and are not listed. Calls follow the shape of the dose curve; as a rule, active = well fitted activation curve with a large enough effect; inconclusive = small, poorly fitted or top-dose-only effect, or another doubt; inactive = no such curve, though single readings can be large or run the other way. Some of the results follow.
# Assay: Primary qHTS for Identification of Small Molecule Activators of Huntingtin-Antisense Promoter Activity; also: nearly all actives have a fitted effect of over 55% in size
# Conditions: HEK293 HTT-AS promoter firefly luciferase reporter, 24 h; series mostly up to 57.5 µM; activity change, positive = activation: at the top concentration
# How it was run: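 HEK293 cells carrying firefly luciferase reporters were seeded at 2,500 per well in Opti-MEM and cultured for 24 h. They were then treated with compounds at up to 57.5 uM final for 24 h at 37 degrees C before Dual-Glo luminescence readout.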
row,SMILES,"activity change, positive = activation"
1,C1CCN2C[C@@H]3C[C@@H](CN4CCCC[C@@H]34)[C@H]2C1,inactive: -1.02%
2,CN1CCc2c(sc3c2C(=O)NC(c2ccc(OC(=O)c4ccc(C(C)(C)C)cc4)cc2)N3)C1 (stereo not drawn),inactive: -73.4%
3,O=C(NCCc1c[nH]c2ccccc12)c1cccnc1,inactive: 19.9%
4,O=C(CSc1nnc(-c2ccccc2)o1)c1cccc([N+](=O)[O-])c1,inactive: -10.3%
5,CCN(CC)CCCNC(=O)c1ccc(-c2nc(CN3CCc4ccccc43)c(C)o2)cc1,inactive: -16.6%
6,COC(=O)c1cc(S(=O)(=O)N2CCN(c3cccc(C)c3)C(C)C2)cn1C (stereo not drawn),inactive: 0.515%
7,O=C(Cn1ncc2c3ccccc3n(Cc3ccc(Cl)cc3)c2c1=O)NCc1ccccn1,inactive: -4.49%
8,CCN(CC)CCCNC(=O)c1ccc2c(=O)n(CCc3ccccc3)c(=O)[nH]c2c1,inactive: 0.672%
9,CCc1ccc(-n2cnc3cc(C(=O)NCc4ccc(C)cc4)ccc32)cc1,inactive: -43%
10,CCOc1ccc(C(=O)Nc2ccc3nc(SCCOc4ccccc4)sc3c2)cc1,inactive: -9.66%
11,CCOC(=O)c1c(C)[nH]c(CCC(=O)NCc2ccc(CC)cc2)c1C,inactive: -24%
12,CC(=O)c1cccc(NC(=O)Cn2nc(C)n3cccc3c2=O)c1,inactive: -17.7%
13,CC(=O)N1CCCc2cc(S(=O)(=O)N3CCC(C(=O)Nc4cccc(Cl)c4C)CC3)ccc21,inactive: -18.3%
14,CCN(CC)C(=O)c1c(-c2ccccc2)c(-c2ccccc2)nn(C)c1=O,inactive: -10.6%
15,CCc1ccc(C(=O)c2cn(CC(=O)Nc3cc(C)ccc3C)c3nc(C)ccc3c2=O)cc1,inactive: -12%
16,O=C(CSc1nnc(-c2cccs2)o1)Oc1ccccc1,inactive: -3.86%
17,CCOC(CN1C(=O)[C@](CC(=O)Nc2ccc(C)cc2)(NC(=O)Nc2ccc(C)cc2)c2ccccc21)OCC,inactive: -24.6%
18,COc1ccc(N2CCN(C(=O)CCn3nc(C)c(S(=O)(=O)N4CCCC4)c3C)CC2)cc1,inactive: -17.5%
19,Cc1ccc(C2c3[nH]c4ccccc4c3CCN2C(=O)c2cccc(C)c2)cc1 (stereo not drawn),inactive: -31.4%
20,CC(C)Nc1ccc(-c2nc(-c3ccco3)no2)cc1[N+](=O)[O-],inactive: 28.7%
21,CCOCCCNC(=O)C(c1ccc(C)cc1)N(Cc1ccc2c(c1)OCO2)C(=O)c1ccc(NC(C)=O)cc1 (stereo not drawn),inactive: 1.29%
22,Cc1ccc2nc(N3CCC(C(=O)N4CCN(c5cccc(Cl)c5)CC4)CC3)[nH]c2c1,inactive: -28.6%
23,CCC(C)NC(=O)c1ccccc1NC(=O)CN1C(=O)c2cccc3cccc1c23 (stereo not drawn),inactive: -15.9%
24,COc1cc(C(=O)NCC(c2cccs2)S(=O)(=O)c2ccc(F)cc2)cc(OC)c1OC (stereo not drawn),inactive: -27.2%

row,SMILES,"activity change, positive = activation"
1,CCOC(=O)c1c(C)[nH]c(CCC(=O)Nc2ccc(C)c(F)c2)c1C,inactive: -20.6%
2,CC(C)NC(=O)CN1C(=O)COc2ccc(S(=O)(=O)N3CCCCCC3)cc21,inactive: -14.4%
3,Cc1cccc(OCC(=O)Nc2ccc(Cl)c(-c3nc4ncccc4o3)c2)c1C,inactive: -21.5%
4,CC1CC(OC(=O)C(O)c2ccccc2)CC(C)(C)N1C (stereo not drawn),inactive: 1.05%
5,Cc1cccc(NC(=O)c2nnn(CC(=O)Nc3ccc(C(C)C)cc3)c2N)c1C,inactive: -2.66%
6,CCC(Sc1nc2cc(OC)c(OC)cc2c2nc(-c3ccccc3)nn12)C(=O)Nc1cccc(C)c1 (stereo not drawn),inactive: -0.73%
7,COc1ccc(NC(=O)C2=C(C)Nc3nc(SCc4ccccc4C)nn3C2c2cc(OC)c(O)c(OC)c2)cc1 (stereo not drawn),inactive: -8%
8,Cc1ccc(-n2ncc(C(=O)NCc3cccs3)c2C2CCN(C(=O)OC(C)(C)C)CC2)c(C)c1,inactive: -18.3%
9,Cc1ccc(CSc2nnc(CCNC(=O)OC(C)(C)C)o2)cc1,inactive: -16.7%
10,COc1ccc(OC)c(NC(=O)CSc2nnc3ccc4ccccc4n23)c1,inactive: -0.385%
11,O=C(NCc1ccccc1Cl)c1ccc(CSCc2ccccc2Cl)o1,inactive: -4.91%
12,CCc1ccc(NC(=O)CCn2nc(-c3ccccc3OC)c3c(C)cc(C)nc32)cc1,inactive: -20.6%
13,COc1ccc(-c2noc(CC(=O)Nc3ccc(F)cc3F)n2)cc1,inactive: -25%
14,Cc1ccc(-c2nnc(Nc3cccc(O)c3)c3ccccc23)cc1S(=O)(=O)N1CCOCC1,"inactive: 13.7% [at 11.5 µM, percent change from vehicle, -100% = no light]"
15,CCC(C(=O)NCc1ccccc1)n1nc(C)c2sc3ccccc3c2c1=O (stereo not drawn),inactive: -14.8%
16,COc1ccc(NC(=O)CCn2c(=O)c3cccn3c3cccnc32)c(OC)c1,inactive: -7.15%
17,CN(Cc1ccccc1)C(=O)Nc1ccc2c(c1)N(C)C(=O)c1ccccc1S2,inactive: -18.3%
18,CCc1ccc(CN(Cc2ccco2)c2cnc(S(C)(=O)=O)nc2C(=O)Nc2ccccc2Cl)cc1,inactive: -25.1%
19,COC(=O)c1scc(-c2ccc(C)cc2)c1S(=O)(=O)N1CCN(c2cccc(OC)c2)CC1,inactive: -23.5%
20,Fc1ccc(Nc2c3c(nc4ccccc24)CCC3)cc1,inactive: -38.1%
21,CCc1nnc(SC(CC)C(=O)Nc2cccc(OC)c2)c2cc3oc(C)cc3n12 (stereo not drawn),inactive: -23.5%
22,Cc1ccc(Sc2c(C)nn(C(C)(C)C)c2OC(=O)C(C)(C)C)cc1,inactive: 9.86%
23,O=C(NCc1ccco1)c1ccc2c(c1)N(Cc1ccc(Cl)cc1)C(=O)c1ccccc1S2=O (stereo not drawn),inactive: -38.8%
24,CCOC(=O)c1ccc(NC(=O)CC2C(=O)OCCN2CC)cc1 (stereo not drawn),inactive: -7.43%

row,SMILES,"activity change, positive = activation"
1,CCN(C(=O)C1CCCN(S(=O)(=O)c2c(C)noc2/C=C/N(C)C)C1)c1cccc(C)c1 (stereo not drawn),inactive: -28.9%
2,CCN(c1ccccc1)c1nnc(NC(=O)Nc2ccccc2F)s1,inactive: -30.1%
3,CCC(=O)N1CCc2cc(Br)cc(S(=O)(=O)CCC(=O)NCc3ccc(Cl)cc3)c21,inactive: -1.58%
4,Cc1nc(Oc2ccc(F)cc2Cl)c2oc3ccccc3c2n1,inactive: -33.4%
5,CCOc1ccccc1NC(=O)CN(C)S(=O)(=O)c1ccc2nc(C)sc2c1,inactive: -15.1%
6,Cc1ccc(CNC(=O)CC(C)S(=O)(=O)c2cc3c(cc2C)NC(=O)CO3)cc1 (stereo not drawn),inactive: -9.48%
7,CSC1=NC2(CCN(C(=O)NC3CCCCC3)CC2)N=C1c1ccc(C)c(C)c1,inactive: -7.28%
8,Cc1ccc(NC(=O)CCc2nnc3n(C)c(=O)c4sccc4n23)cc1C,inactive: -3.57%
9,Cc1ccc(C)c(NC(=O)CN2C(=O)C(C)(C)c3ccccc32)c1,inactive: -4.97%
10,COc1ccc(Br)cc1CNC(=O)c1cc2n(n1)CCCN(Cc1ccc(C)cc1)C2=O,inactive: -7.13%
11,O=C(Nc1sc2c(c1C(=O)NCc1ccco1)CCCC2)c1cc(=O)c2ccccc2o1,inactive: 2.79%
12,COc1ccc(N2CCN(C(=O)c3nc(SC)ncc3Cl)CC2)cc1,inactive: 3.04%
13,CC1=C(c2ccc(C)c(C)c2)S(=O)(=O)N=C1N1CCC(C(=O)NCc2ccc(C)o2)CC1,inactive: -15.2%
14,Cc1ccccc1OCCn1c(CCNC(=O)C(C)(C)C)nc2ccccc21,inactive: -12.4%
15,CC(C)(C)OC(=O)N1CCC(c2c(C(=O)N3CCc4ccccc4C3)cnn2-c2ccc(F)cc2)CC1,inactive: -6.5%
16,COc1ccc(C(C)C)cc1S(=O)(=O)NCCc1c(C)[nH]c2ccc(C)cc12,inactive: -35.4%
17,CCOc1ccc(-c2nc(C#N)c(NCCCOC)o2)cc1,inactive: -9.78%
18,CC(NC(=O)CCCn1c(=O)c2cccn2c2cccnc21)c1ccccc1 (stereo not drawn),inactive: -6.71%
19,Cc1coc2c(C)c3oc(=O)c(CCC(=O)NCCc4ccc(Cl)cc4)c(C)c3cc12,inactive: -3.71%
20,Cc1c2cnn(CC(=O)Nc3cccc(C(F)(F)F)c3)c(=O)c2c(C)n1Cc1ccccc1Cl,inactive: -18.8%
21,CCOC(=O)N1CCc2c(sc3c2c(=O)n(-c2ccc(CC)cc2)c(=O)n3CC(=O)c2ccc(F)cc2)C1,inactive: -13.6%
22,COc1cc(C(=O)Nc2ccc3nc(SCc4ccccc4)sc3c2)cc(OC)c1OC,inactive: -30%
23,CCN(C(=O)CSc1nc2ccccc2n1Cc1cc(C)ccc1C)c1ccccc1,inactive: -19%
24,Cc1c2cnn(CC(=O)NC(C)C)c(=O)c2c(C)n1Cc1ccccc1Cl,inactive: 11.1%

row,SMILES,"activity change, positive = activation"
1,O=C(Cn1nc(-c2ccc(Cl)cc2)ccc1=O)NCc1ccccc1Cl,inactive: -5.09%
2,Cc1nnc(NS(=O)(=O)c2ccc(N)cc2)s1,inactive
3,COc1cccc(C2C(C(=O)Nc3ccc(C)cc3C)=C(C)Nc3c(C(=O)Nc4cccc(C)c4)cnn32)c1OC (stereo not drawn),inactive: -6.78%
4,COc1cccc(N2CCN(C3C(=O)c4ccccc4N3C(C)=O)CC2)c1 (stereo not drawn),inactive: -16.9%
5,COc1ccc(N2CCN(C(=O)c3ccc(-c4nc(COc5ccccc5)c(C)o4)cc3)CC2)cc1,"inactive: -1.34% [at 11.5 µM, percent change from vehicle, -100% = no light]"
6,CCCNC(=O)C1CCC(Cn2c(=O)c3sccc3n(CC(=O)N3CCC(C)CC3)c2=O)CC1 (stereo not drawn),inactive: -9.8%
7,Cc1cccc(OCC(=O)N(Cc2sccc2C)C2CCS(=O)(=O)C2)c1 (stereo not drawn),inactive: -12.9%
8,O=C(NCc1cccc(Cl)c1)C1CCN(C(=O)c2sccc2-n2cccc2)CC1,inactive: -22.5%
9,CCc1ccc(C(=O)c2cn(CC(=O)Nc3ccc(OC)cc3OC)c3ccc(CC)cc3c2=O)cc1,inactive: -18.6%
10,COc1cccc(C(=O)Nc2cccc(C(=O)OCc3cc(=O)n4nc(C(C)C)sc4n3)c2)c1,inactive: 29.7%
11,CC(=O)N1CCC(N(C(=O)Nc2c(F)cccc2F)C(C)C)CC1,inactive: -1.82%
12,Cc1ccc(N(C)C(=O)c2cnc(N3CCOCC3)c3ccccc23)cc1C,inactive: -13%
13,COc1ccc(OC)c(CNC(=O)Cc2ccc(NC(=O)N3CCCCc4ccccc43)cc2)c1,inactive: -12.5%
14,COCCCNC(=O)c1c(NC(=O)Cc2coc3cc(C)cc(C)c23)sc2c1CCCC2,inactive: -16.9%
15,CCc1ccc(CNC(=O)CSc2cc(=O)n(C)c3ccc(Cl)cc23)cc1,inactive: -15.1%
16,CCN(CCCNC(=O)c1cc2c(=O)n(CC)c3ccccc3c2s1)c1ccccc1,inactive: -24.9%
17,COc1ccc(-c2cc(-c3ccccc3)nc(SCC(=O)CC(=O)OC(C)C)c2C#N)cc1,inactive: -17.2%
18,O=C(c1ccc2c(c1)N(Cc1ccccc1F)C(=O)c1ccccc1S2(=O)=O)N1CCCC1,inactive: -14.3%
19,COc1ccc(C(=O)N(Cc2cc(OC)c(OC)c(OC)c2)CC2CCCO2)cc1 (stereo not drawn),inactive: -13.1%
20,Cc1cc(F)ccc1NCc1ccccc1-c1nnc(-c2ccccc2Cl)o1,inactive: 17.6%
21,O=C(NCC(c1cccnc1)N1CCc2ccccc21)c1cccc(C(F)(F)F)c1 (stereo not drawn),inactive: -27%
